Assay results as given in PubChem BioAssay AID686978 (National Center for Advancing Translational Sciences (NCATS), 2013).
In all, about 420,000 compounds went through this assay and about 64,000 (15%) were called active. The shares of active, inactive and inconclusive entries below differ from those in the screen. Calls come from the whole dose curve; as a rule, active = well fitted inhibition curve with a large enough effect; inconclusive = small, poorly fitted or top-dose-only effect; inactive = flat fitted curve, though single readings scatter. No potency is given beside an inconclusive call; the fits are too rough.

Test: qHTS for Inhibitors of human tyrosyl-DNA phosphodiesterase 1 (TDP1): qHTS in cells in absence of CPT; note: nearly all actives have a fitted effect of over 55% in size
Conditions: DT40 Tdp1-/- hTDP1 cells, no CPT, ATP luminescence, 48 h; series mostly up to 46.2 µM
Procedure, shortened: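 No-CPT arm: Tdp1-/-;hTDP1 DT40 cells (400/well) plus compounds, incubated ≥48 hr at 37 °C. Readout CellTiter-Glo luminescence.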
Potency is the fitted concentration of half-maximal effect; tags give direction and shape of the fitted curve.

Row | Structure (SMILES) | Potency
1 | CCCc1cc(=O)[nH]c(SCC(=O)Nc2ccc(N3CCCCC3)cc2)n1 | inconclusive [inhibitor, single point]
2 | CN1CCN(c2nc(-c3ccccc3O)nc3ccccc23)CC1 | inconclusive [inhibitor, single point]
3 | COc1ccc(OC(F)(F)F)cc1CC1(C)C(=O)Nc2ccc(S(=O)(=O)NC3CCCCC3)cc21 (stereo not given) | inconclusive [inhibitor, single point]
4 | Cc1ccc(OCc2nnc(SCC(=O)N3c4ccccc4Sc4ccc(Cl)cc43)o2)cc1 | inconclusive [inhibitor, partial curve]
5 | COc1ccc2cc(C(=O)NCc3ccco3)c(=Nc3ccc(C(=O)O)cc3)oc2c1 | inconclusive [inhibitor, partial curve, poor fit]
6 | Cc1[nH]c2ccccc2c1N=Nc1ccccc1C(=O)O | inconclusive [inhibitor, partial curve]
7 | COc1ccc(CNc2nc(-c3ccc(C(=O)N(C)C)cc3)nc3ccccc23)c(OC)c1 | inconclusive [inhibitor, single point]
8 | O=C(CS(=O)(=O)c1ccccc1)NCc1ccccc1 | inactive
9 | CC(C)c1ccc(Nc2ncc3c(n2)CCN(C(=O)NC2CCCCC2)C3)cc1 | inconclusive [inhibitor, single point]
10 | Cc1ccc(CN(C)C(=O)c2cc(Br)c(Br)s2)o1 | inconclusive [inhibitor, single point]
11 | Cc1[nH]c2ccccc2c1C(=O)CN1C(=O)C(=O)N(Cc2ccco2)C1=O | inactive
12 | NC(=O)C1=NOC(CNc2ncc(C(F)(F)F)cc2Cl)C1 (stereo not given) | inactive
13 | O=C(CC(Nc1ccccc1)C(=O)O)c1ccccc1 (stereo not given) | inconclusive [inhibitor, single point]
14 | O=C1NC(=O)C2(CCc3ccccc32)N1 (stereo not given) | inactive
15 | O=C(O)Cc1coc2cc3c(cc12)CCC3 | inactive
16 | Cn1c(SCC(=O)N2c3ccccc3CCc3ccccc32)nnc1-c1ccc(O)cc1 | inactive
17 | Cc1cc2oc(=O)cc(-c3ccccc3)c2c(C)c1-c1ccc(O)cc1 | inconclusive [inhibitor, single point]
18 | Cc1ccc(C)c(OCC(=O)N/N=C/c2ccc(N3CCOCC3)cc2)c1 | inconclusive [inhibitor, single point]
19 | CCC1CN(C(=O)N2CCC(C(=O)NCc3ccc(OC)cc3OC)CC2)c2cc(C)ccc2O1 (stereo not given) | active: 18.4 µM
20 | N#Cc1cccc(-c2nc3cnc(N4CCOCC4)nc3n(Cc3ccc(F)cc3)c2=O)c1 | inactive
21 | Cc1ccc(NC(=O)c2ccc(NCCCN3CCC(C)CC3)c([N+](=O)[O-])c2)c(C)c1 | active: 16.4 µM
22 | O=C(NN1CCOCC1)c1cc(-c2ccc(Br)cc2)nc2ccccc12 | active: 7.31 µM
23 | CCc1cccc(NC(=O)COC(=O)C2COc3ccccc3O2)c1 (stereo not given) | inactive

Row | Structure (SMILES) | Potency
24 | CCOc1ccc(-c2nc(SC(C(C)=O)C(=O)N(C)C)c3c(=O)n(C)c(=O)n(C)c3n2)cc1 (stereo not given) | inactive
25 | Cc1ccc(C)c(S(=O)(=O)NCc2ccncc2)c1 | active: 20.6 µM
26 | COc1ccc(C2N(c3ccc(C)cc3)CCN2c2ccc(C)cc2)cc1O | inconclusive [inhibitor, single point]
27 | O=C(Nc1ccc(S(=O)(=O)NCC2CCCO2)cc1)c1cccc(F)c1 (stereo not given) | inconclusive [inhibitor, partial curve, poor fit]
28 | Cc1c(Cl)cccc1-n1ncc(C(=O)Nc2ccc3c(c2)OCCO3)c1C1CCN(C(=O)OC(C)(C)C)CC1 | inconclusive [inhibitor, single point]
29 | COc1ccc(/C(N)=N/OC(=O)CN(C)S(=O)(=O)c2ccc(C)cc2)cc1 | inconclusive [inhibitor, single point]
30 | CCC(CC)c1nnc(NC(=O)c2cccc(S(=O)(=O)N3CCc4ccccc43)c2)s1 | inconclusive [inhibitor, single point]
31 | CC(C)COP(=O)(OCC(C)C)C(Nc1ccccc1)c1ccc(F)cc1 (stereo not given) | inconclusive [inhibitor, single point]
32 | COc1ccc(-c2nn(C)c3sc(C(=O)Nc4cccc(F)c4)cc23)cc1OC | active: 10.3 µM
33 | O=C(C[N+]12CCCc3cccc(c31)CCC2)c1ccc2ccc3cccc4ccc1c2c34 | active: 5.01 µM
34 | O=C(NNC(=S)NCc1ccco1)C(c1ccccc1)c1ccccc1 | inconclusive [inhibitor, single point]
35 | CC1=C(C(=O)N2CCOCC2)CC(CC(=O)NCc2ccco2)C(=O)N1CCC1=CCCCC1 (stereo not given) | inconclusive [inhibitor, single point]
36 | CCc1ccc(NC(=O)c2ccc3c(c2)nnn3CC)cc1 | inconclusive [inhibitor, partial curve]
37 | O=C(C[n+]1c2ccccc2cc2ccccc21)c1ccc(F)cc1 | active: 10 µM
38 | O=C(COC(=O)c1cc(-c2ccccn2)nc2ccccc12)Nc1ncc(C(F)(F)F)cc1Cl | inconclusive [inhibitor, single point]
39 | O=C(O)C1CCN(C(=O)OCc2ccccc2)CC1 | inactive
40 | CC(=O)Oc1ccc(C(=O)Nc2cccc(C(=O)Nc3ccccc3C(=O)O)c2)cc1 | inactive
41 | Cc1cc(C)n2nc(C(=O)N(C)C(c3ccccc3)c3ccccc3)nc2n1 | inconclusive [inhibitor, single point]
42 | Cc1ccccc1NC(=O)c1ccc(CN2CCc3ccccc3C2)cc1 | inconclusive [inhibitor, single point]
43 | CC1C(=O)OC(c2ccc(Cl)cc2)C(C)(C)C1=O (stereo not given) | inconclusive [inhibitor, single point]
44 | CC(C)(C)NC(=O)C(c1cccs1)N(CC1CCCO1)C(=O)c1ccc(-c2ccccc2)[nH]1 (stereo not given) | active: 20.6 µM
45 | Cc1ccc2cc3cc(C(=O)Nc4ccc(F)cc4Cl)oc3nc2c1 | inconclusive [inhibitor, single point]
